According to article PMC6141180, “The TAB1-p38α complex aggravates myocardial injury and can be targeted by small molecules” (JCI Insight, 2018):

T1: TAB1 (residues 1–438) (mouse, UniProt Q8CF89 1-438)
T1 construct: mouse TAB1 residues 1-438; His6 tag and TEV cleavage site before it; also called native TAB1; source: E. coli Rosetta II (pETDuet-1), purified
T1 sequence (looked up): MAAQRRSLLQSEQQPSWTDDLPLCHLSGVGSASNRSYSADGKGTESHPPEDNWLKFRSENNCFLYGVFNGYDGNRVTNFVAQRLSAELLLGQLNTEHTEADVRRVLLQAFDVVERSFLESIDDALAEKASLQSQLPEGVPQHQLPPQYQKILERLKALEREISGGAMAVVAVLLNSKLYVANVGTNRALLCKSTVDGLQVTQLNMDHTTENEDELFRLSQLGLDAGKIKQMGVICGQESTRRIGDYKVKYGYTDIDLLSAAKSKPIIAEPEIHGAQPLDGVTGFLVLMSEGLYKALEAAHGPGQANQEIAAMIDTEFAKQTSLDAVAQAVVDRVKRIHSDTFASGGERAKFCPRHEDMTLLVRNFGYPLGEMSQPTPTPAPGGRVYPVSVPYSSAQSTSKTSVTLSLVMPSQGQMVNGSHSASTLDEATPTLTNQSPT

T2: TAB1 (residues 1–438) phosphorylated at Serine 423 (mouse, UniProt Q8CF89 1-438, phosphoserine at 423)
T2 construct: TAB1 residues 1-438 with phosphoserine at 423; purified by the same protocols as TAB1 and p38α; also called p^S423TAB1; pTAB1; source: C321(DE3)ΔserB E. coli (pCDF vector), grown with 2 mM O-phospho-L-Serine, purified
T2 sequence (looked up): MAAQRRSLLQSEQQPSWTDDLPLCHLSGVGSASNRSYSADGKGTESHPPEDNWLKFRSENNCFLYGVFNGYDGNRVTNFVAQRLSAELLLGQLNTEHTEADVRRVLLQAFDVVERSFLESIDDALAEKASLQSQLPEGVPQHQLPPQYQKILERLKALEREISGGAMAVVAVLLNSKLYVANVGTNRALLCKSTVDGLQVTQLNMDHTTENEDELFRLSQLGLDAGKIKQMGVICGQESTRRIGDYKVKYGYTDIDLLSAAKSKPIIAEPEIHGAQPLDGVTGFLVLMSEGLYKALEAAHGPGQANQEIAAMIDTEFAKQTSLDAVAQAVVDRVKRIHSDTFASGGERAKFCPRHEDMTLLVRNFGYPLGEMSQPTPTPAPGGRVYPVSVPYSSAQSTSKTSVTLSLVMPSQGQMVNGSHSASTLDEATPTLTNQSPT


Assays:
TAB1 (residues 1–438) = molecular target: T1, TAB1 (residues 1–438); experiment: ITC; iTC200 microcalorimeter; T = 298 K; who was in the syringe is not told; conditions: both partners purified
[1] = molecular target: T2, TAB1 (residues 1–438) phosphorylated at …; experiment: as above; conditions: both partners purified

Row | binding result (TAB1 (residues 1–438)) | binding result [1] | Binder
1 | binds | – | p38α (MAPK14), nonphosphorylated (enzyme, mouse p38α (MAPK14); Also used as the target of the functional rows on co-expressed p38α (E. coli pETDuet-1 first cloning site; HEK293 plasmid not described); source: E. coli Rosetta II (pETDuet-1), purified) not shown
2 | binds | binds | dual (pThr180, pTyr182) phosphorylated p38α (enzyme, phosphothreonine at 180, phosphotyrosine at 182, mouse p38α (MAPK14), phosphorylated on Thr180 and Tyr182; Stoichiometric phosphorylation confirmed by mass spectrometry; also called pp38α; active p38α; source: E. coli Rosetta II, purified) not shown
